Experimental data from PubChem BioAssay AID894 (National Center for Advancing Translational Sciences (NCATS), 2007).
“And” between values parts separate entries of the source, which are not always exact repeats. Equal values may be shown once. The whole screen tested about 150,000 compounds, of which about 6,500 (4.3%) were called active. This list was built around the results that the source calls inconclusive (neither active nor inactive); the mix of calls is not that of the screen. The call rests on the fitted dose curve; in most records, active means well fitted inhibition curve with a large enough effect (not every such curve was filed as active); inconclusive means small, poorly fitted or top-dose-only effect, or another doubt; inactive means no such curve, though single readings can be large or run the other way. A potency beside an inconclusive call is a rough fit, not a confirmed value.

biological target: 15-hydroxyprostaglandin dehydrogenase [NAD(+)] (Homo sapiens) (UniProt P15428); test: qHTS Assay for Inhibitors of HPGD (15-Hydroxyprostaglandin Dehydrogenase); settings: purified HPGD, NADH fluorescence kinetic, PGE2 substrate; activity change, negative = inhibition: active compounds read low
UniProt P15428, sequence (P15428 whole entry, looked up): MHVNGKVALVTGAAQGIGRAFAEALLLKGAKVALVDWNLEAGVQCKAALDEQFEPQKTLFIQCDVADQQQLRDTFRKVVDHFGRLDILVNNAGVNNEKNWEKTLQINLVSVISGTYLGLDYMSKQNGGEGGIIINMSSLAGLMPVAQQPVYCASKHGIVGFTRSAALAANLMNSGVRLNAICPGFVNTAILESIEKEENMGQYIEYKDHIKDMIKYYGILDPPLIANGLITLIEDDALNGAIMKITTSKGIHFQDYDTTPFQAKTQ
Description: Human 15-Hydroxyprostaglandin dehydrogenase (HPGD) catalyzes the inactivation of prostaglandin E2, and plays a major role in cancer biology by antagonizing the oncogenic potential of cyclooxygenase type 2 (COX2). Assays are available, based on absorbance/fluorescence increase of NADH with the substrate 15-OH prostaglandin E2. References 1. Myung SJ, Rerko RM, Yan M, Platzer P, Guda K, Dotson A, Lawrence E, Dannenberg AJ, Lovgren AK, Luo G, Pretlow TP, Newman RA, Willis J, Dawson D, Markowitz SD. 15-Hydroxyprostaglandin dehydrogenase is an in vivo suppressor of colon tumorigenesis. […] 2. Yan M, Rerko RM, Platzer P, Dawson D, Willis J, Tong M, Lawrence E, Lutterbaugh J, Lu S, Willson JK, Luo G, Hensold J, Tai HH, Wilson K, Markowitz SD. 15-Hydroxyprostaglandin dehydrogenase, a COX-2 oncogene antagonist, is a TGF-beta-induced suppressor of human gastrointestinal cancers. Proc Natl Acad Sci U S A. 2004 Dec 14;101(50):17468-73. 3. Yang L, Amann JM, Kikuchi T, Porta R, Guix M, Gonzalez A, Park KH, Billheimer D, Arteaga CL, Tai HH, Dubois R, Carbone DP, Johnson DH. Inhibition of Epidermal Growth Factor Receptor Signaling Elevates 15-Hydroxyprostaglandin Dehydrogenase in Non-Small-Cell Lung Cancer. Cancer Res. 2007 Jun 15;67(12):5587-5593. Inhibition of HPGD activity was screened by utilizing prostaglandin as an electron donor and NAD+ as an electron acceptor/cofactor. An increase in the fluorescence intensity due to conversion of NAD+ to NADH was used to measure the enzyme activity. NIH Chemical Genomics Center [NCGC] Structural Genomics Consortium [SGC]
Buffer: 50 mM Tris-HCl, 0.01% Tween 20, pH 8. Enzyme Buffer: 50 mM Tris-HCl, 0.5 mM NAD+ and 0.01% Tween 20, pH 8. Reagents/Controls: Buffer in columns 3 and 4 as negative control (no enzyme). Substrate/cofactor solution: 1 mM NAD+ and 30 uM prostaglandin (Sigma, prostaglandin E2, # P5640) final concentrations dispensed throughout the plate. Enzyme: 20 nM HPGD final concentration in columns 1, 2, 5-48. Column 1 and 2 is neutral (100% activity). A titration of control inhibitor GW5074 (G6416 Sigma-Aldrich, St. Louis, MO) top concentration 10 mM in DMSO, then 1:2 dilution for a total of 16 concentrations in duplicate) was pin-transferred into column 2. Assay Steps: Three uL of enzyme were dispensed to 1536-well Greiner black solid bottom plates. Compounds and control inhibitor (23 nL) were transferred via Kalypsys PinTool. The plates were incubated for 15 min at room temperature, and then 1 uL of substrate/cofactor solution was added to start the reaction. The plates were immediately transferred to and read 5 times every 30 seconds on ViewLux High-throughput CCD imager (Perkin-Elmer) using 360 nm excitation and 450 nm emission fluorescence protocol. The fluorescence intensity difference between the last and the first time points was used to compute reaction progress.
On the % scale 0 is the no-effect control and ±100 the full control effect; potency means the concentration at half of the fitted maximal effect; tags describe the fitted curve by direction and shape.

Potency, active:
Cc1ccc(NC(=O)COC(=O)C2CC2)c(Br)c1 17.8 µM, CSc1nc2ccc(S(=O)(=O)NC3CCCCC3)cc2s1 15.8 µM, Cc1nc2c(=O)[nH]c(=S)n(C)c2nc1C 10 µM, Cc1cc(C)c2c(c1)[C@@H]1C=CC[C@@H]1[C@H](c1ccc(S(=O)(=O)N3CCOCC3)cc1)N2 25.1 µM, CN(C)CCC(=O)c1ccc(Cl)cc1 15.8 µM, c1ccc(-c2nnc3sc(CN4CCc5ccccc54)cn23)cc1 11.2 µM, S=c1[nH]c2ccccc2s1 14.1 µM and 25.1 µM, O=C(Nc1ccc(Br)c(Cl)c1)C1CC1 17.8 µM, Cc1ccc(O)c(-c2cc(C(=O)Nc3ccc(S(=O)(=O)N4CC(C)OC(C)C4)cc3)[nH]n2)c1 (stereo not drawn) 12.6 µM, O=c1c(-c2cc(O)c(O)c(O)c2)coc2cc(O)c(O)c(O)c12 7.08 µM, O=C(CSc1nnc(-c2ccco2)n1Cc1ccccc1)OC1CCCCC1 25.1 µM, Cc1ccc2oc(-c3ccccc3)c(C(=O)O)c(=O)c2c1 14.1 µM, Cc1ccc(NC(=S)NCc2ccccc2)cc1[N+](=O)[O-] 12.6 µM

Potency, inconclusive:
O=c1[nH]c2c(s1)C(c1ccccc1)C1C3CCC(C3)C1S2 (stereo not drawn) 31.6 µM [inhibitor, single point], O=C(c1cnn(-c2nc3ccccc3s2)c1)c1ccccc1O 15.8 µM [inhibitor, partial curve], COc1ccc(C2=CC(c3ccc(C)cc3)n3nnnc3N2)cc1 (stereo not drawn) 35.5 µM [inhibitor, partial curve], CCOC(=O)c1[nH]c(C)c(C(=O)Nc2ccccc2C)c1C 31.6 µM [inhibitor, partial curve], Cc1cc(=O)oc2cc(O)c(CN(C)CC(=O)O)cc12 5.01 µM [inhibitor, partial curve], CCOC(=O)c1ccc(N2C(=O)c3n[nH]c(C)c3C2c2ccc(OC)c(OC)c2)cc1 (stereo not drawn) 35.5 µM [inhibitor, single point], CCOC(=O)N1CCN(c2ncnc3c2[nH]c2ccc(OC)cc23)CC1 35.5 µM [inhibitor, partial curve], COc1ccc(CNC(=O)[C@H](C)[C@@H]2C[C@@]2(C)[C@@H](NC(=O)OCc2ccccc2)c2ccccc2)cc1OC 17.8 µM [inhibitor, partial curve, poor fit], C=CCNC(=O)c1c(Cl)cccc1Cl 39.8 µM [inhibitor, single point], Cn1nnc2cc(NC(=O)NCc3ccc4c(c3)OCO4)ccc21 31.6 µM [inhibitor, partial curve], O=C(/C=C/c1ccc(Cl)c([N+](=O)[O-])c1)Nc1cccnc1 8.91 µM [inhibitor, single point], CCN1N=C(c2cc(Cl)sc2Cl)CSC1=O 3.16 µM [inhibitor, single point], CCOc1ccc(-c2nnc(Nc3ccc(OC)c(C(=O)N4CCCCC4)c3)c3ccccc23)cc1 31.6 µM [inhibitor, single point], Cc1onc(-c2ccccc2)c1C(=O)Nc1cccc2nsnc12 31.6 µM [inhibitor, partial curve], Cc1cccc(-c2cc3nc4c(c(NCc5ccco5)n3n2)CCCC4)c1 14.1 µM [inhibitor, partial curve], COc1ccccc1-c1cc(C(F)(F)F)nc(S(=O)(=O)CCCC(=O)O)n1 39.8 µM [inhibitor, single point], OCCCCNc1cccc2ccccc12 22.4 µM [inhibitor, partial curve], COc1ccc(-n2c(SCC(=O)Nc3ccc4c(c3)OCO4)nc3c(c2=O)SCC3)cc1 31.6 µM [inhibitor, partial curve], O=C(CSc1nccc(=O)[nH]1)Nc1ccc(F)c([N+](=O)[O-])c1 39.8 µM [inhibitor, partial curve, poor fit], CC(=O)c1c(O)cc(O)cc1O 12.6 µM [inhibitor, partial curve], O=C(NCCc1ccccc1)c1ccc2nc(-c3ccco3)c(-c3ccco3)nc2c1 14.1 µM [inhibitor, partial curve], CC1(C(=O)NC(=S)N(Cc2ccccc2)c2ccccn2)CC1(Cl)Cl (stereo not drawn) 20 µM [inhibitor, partial curve], CCOc1ccc2oc(-c3ccccc3)c(C(=O)N3CCN(CCO)CC3)c2c1 25.1 µM [inhibitor, partial curve], O=C(NCC(O)CO)c1ccc2[nH]c3ccccc3c2c1 (stereo not drawn) 31.6 µM [inhibitor, partial curve], COc1ccc2cc(/C=N/NC(=O)c3ccc(CN(c4ccc(C)c(C)c4)S(C)(=O)=O)cc3)c(Cl)nc2c1 28.2 µM [inhibitor, partial curve], CN(C)c1ccc(-c2nnn(CC(=O)N3c4ccccc4CCc4ccccc43)n2)cc1 28.2 µM [inhibitor, partial curve], N#C/C(=C\c1ccc(O)c(O)c1)S(=O)(=O)c1ccccc1 25.1 µM [inhibitor, single point], COC(=O)Oc1ccccc1C(=O)O 31.6 µM [inhibitor, partial curve], Cc1cc2cc(CCNC(=O)CC(C)C)c(=O)[nH]c2cc1C 39.8 µM [inhibitor, single point], C1=C(c2ccccc2)Nc2nnnn2C1 39.8 µM [inhibitor, single point], Cc1cc(NC(=O)c2ccc(S(=O)(=O)N3CCOCC3)cc2)nc2c1c(=O)oc1ccccc12 20 µM [inhibitor, partial curve], CC1(C)Cc2c(c(N3CCOCC3)nc3sc4c(=O)[nH]cnc4c23)CS1 25.1 µM [inhibitor, partial curve], COC(=O)c1cc2ccccc2oc1=O 31.6 µM [inhibitor, partial curve], N#Cc1cc(-c2ccccc2)cn(Cc2c(Cl)cccc2Cl)c1=O 31.6 µM [inhibitor, partial curve], CCOC(=O)c1[nH]c2cc3c(cc2c1NC(=O)CN1CCCCC1C)OCO3 (stereo not drawn) 31.6 µM [inhibitor, partial curve], COc1ccc(-c2cc(C(=O)Nc3c(Cl)cc(Cl)cc3Cl)c3ccccc3n2)cc1OC 28.2 µM [inhibitor, partial curve], CC(=O)N1N=C(c2ccncc2)OC12CCCCC2 25.1 µM [inhibitor, partial curve], O=C(N/N=C/c1nn(-c2ccccc2)cc1-c1ccccc1)c1ccncc1 28.2 µM [inhibitor, partial curve]

Activity change, negative = inhibition, inactive:
Cc1ccc(CN2C(=O)CCC2C(=O)NCc2cccnc2)cc1 (stereo not drawn) -11.2%, O=C(CSc1nnc(-c2ccccc2)n1Cc1ccccc1)NNC(=O)c1ccccc1O -17.2%, COCC(=O)N1CCC2(CCN(Cc3ccccc3)CC2)CC1 -6.12%, CN=C(Nc1ccc(Cl)cc1)c1ccc(C(F)(F)F)cc1 -6.93%, O=C(CSC(=S)N1CCOCC1)Nc1nc(=O)c2ccccc2s1 -21.6%, CCOC(=O)c1sc(N)c(C#N)c1CSc1nnc(C2CCCCC2)n1N -6.57%, Cc1ccc(S(=O)(=O)NN2C(=O)/C(=C/c3cccn3C)SC2=S)cc1 -26.5%, Cc1ccc(Nc2nnc(C(C)(C)C)c(=O)n2N)cc1 2.2%, Cc1ccc(S(=O)(=O)N2CCN(C(=O)C3Cc4ccccc4CN3C(=O)c3ccco3)CC2)cc1 (stereo not drawn) -9.85%, Cc1ccccc1NC(=S)N1CCN(Cc2ccc3c(c2)OCO3)CC1 1.22%, COc1ccccc1NC(=O)CN1CCN(C(=O)c2ccco2)CC1 0.505%, O=C(COC(=O)Cn1cnc2ccccc21)NCCc1ccc(Cl)cc1 -9.34%, COC(=O)N1CCC2(CCCN(Cc3ccc(C#N)cc3)C2)CC1 -4.98%, O=CC(=O)c1ccccc1 -7.64%, CCc1ccc2[nH]c(=O)c(CN(Cc3nnnn3C3CCCC3)C3CCCCC3)cc2c1 -19%, O=C(NC(=S)N1CCCc2ccccc21)c1ccccc1 -9.73%, CCC(c1nnnn1Cc1ccco1)N1CCN(C(=O)c2ccco2)CC1 (stereo not drawn) -0.277%, O=c1cc(N2CCN(c3ccc(F)cc3)CC2)[nH]c(=O)n1C1CCCCC1 -13.1%, COc1ccc(OCC(=O)NC(=S)Nc2ccc(S(=O)(=O)Nc3cc(OC)nc(OC)n3)cc2)cc1 -13.2%, O=C(CSc1nnc(-c2ccccc2O)o1)N1CCc2ccccc2C1 -26.7%, CC(=O)Nc1ccc(S(=O)(=O)Nc2ccc(Cl)nn2)cc1 -12.4%, Cc1ccc(CN2C(=O)c3ccccc3C2C(=O)NCc2cccnc2)cc1 (stereo not drawn) -6.06%
